The source of these data is patent US20230078173A1 (ELIXIRON IMMUNOTHERAPEUTICS HONG KONG, published 2023).

The target in test [1] is T1, recombinant cynomolgus PD-L1 (cynomolgus monkey, UniProt Q9NZQ7 fragment (human entry)).
T1 construct: also called cynoPD-L1; Cynomolgus PD-L1.ECD
The test can be described thus: ELISA, cynomolgus PD-L1 immobilised (1 µg/mL). For orientation: ELISA stands for enzyme-linked immunosorbent assay.

In test [2] the target is T2, recombinant human PD-L1-mFc fusion protein (human, UniProt Q9NZQ7 fragment).
T2 construct: also called hPD-L1; huPD-L1
Put plainly: competition ELISA, PD-L1 immobilised, competitor biotin-PD-1-Fc (30 µg/mL).

In test [3] the target is T2, recombinant human PD-L1-mFc fusion …. Put plainly: ELISA, human PD-L1-mFc immobilised (1 µg/mL), anti-human kappa-HRP detection.
A further test addresses T3, IL10Rα-Fc fusion protein (human, UniProt Q13651 22-235).
T3 construct: Bought from R&D Systems; also called human IL10Rα
T3 sequence (looked up): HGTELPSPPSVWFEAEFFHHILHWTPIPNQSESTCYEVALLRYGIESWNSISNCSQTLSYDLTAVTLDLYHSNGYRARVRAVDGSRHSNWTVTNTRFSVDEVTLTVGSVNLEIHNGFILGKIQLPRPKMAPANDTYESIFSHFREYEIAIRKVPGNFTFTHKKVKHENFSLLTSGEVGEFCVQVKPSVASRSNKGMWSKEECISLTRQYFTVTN
Put plainly: ELISA, IL10Rα-Fc immobilised (1 µg/mL).

B1: PHS206 (antibody, human IgG1, kappa)
heavy: EVQLVESGGGLVQPGGSLRLSCAASGFTISDFGIHWVRQAPGKGLEWVAGISPDSGNTNYADSVKGRFTISADTSKNTAYLQMNSLRAEDTAVYFCARTFFRRSLDYWGQGTLVTVSSASTKGPSVFPLAPSSKSTSGGTAALGCLVKDYFPEPVTVSWNSGALTSGVHTFPAVLQSSGLYSLSSVVTVPSSSLGTQTYICNVNHKPSNTKVDKKV[letters of human IgG1 Fc with changes left out]
light: DIQMTQSPSSLSASVGDRVTITCRASQDVSSGVAWYQQKPGKAPKLLISFANYLYSGVPSRFSGSGSGTDFTLTISSLQPEDFATYYCQQGSNLPFTFGQGTKVEIKRTVAAPSVFIFPPSDEQLKSGTASVVCLLNNFYPREAKVQWKVDNALQSGNSQESVTEQDSKDSTYSLSSTLTLSKADYEKHKVYACEVTHQGLSSPVTKSFNRGEC
As for B1, the results for the EC50 in test [1] and in test [3] were 0.187 nM and 0.0525 nM, respectively. Moreover, the IC50 (commonly the concentration needed to halve the response being measured) in test [2] turned out to be 0.083 nM.

B2: PHS206/IL10 (antibody, human IgG1, kappa)
heavy: EVQLVESGGGLVQPGGSLRLSCAASGFTISDFGIHWVRQAPGKGLEWVAGISPDSGNTNYADSVKGRFTISADTSKNTAYLQMNSLRAEDTAVYFCARTFFRRSLDYWGQGTLVTVSSASTKGPSVFPLAPSSKSTSGGTAALGCLVKDYFPEPVTVSWNSGALTSGVHTFPAVLQSSGLYSLSSVVTVPSSSLGTQTYICNVNHKPSNTKVDKKV[letters of human IgG1 Fc with changes left out]LGGGGSGGGGSGGGGSPGQGTQSENSCTHFPGNLPNMLRDLRDAFSRVKTFFQMKDQLDNLLLKESLLEDFKGYLGCQALSEMIQFYLEEVMPQAENQDPDIKAHVNSLGENLKTLRLRLRRCHRFLPCENKSKAVEQVKNAFNKLQEKGIYKAMSEFDIFINYIEAYMTMKIRN
light: DIQMTQSPSSLSASVGDRVTITCRASQDVSSGVAWYQQKPGKAPKLLISFANYLYSGVPSRFSGSGSGTDFTLTISSLQPEDFATYYCQQGSNLPFTFGQGTKVEIKRTVAAPSVFIFPPSDEQLKSGTASVVCLLNNFYPREAKVQWKVDNALQSGNSQESVTEQDSKDSTYSLSSTLTLSKADYEKHKVYACEVTHQGLSSPVTKSFNRGEC
For B2, the IC50 in test [2] amounted to 0.116 nM. The concentration for a half-maximal effect (EC50) (commonly the concentration at which the effect is half-maximal) in the test with IL10Rα-Fc fusion protein is 61.9 nM; in test [3], 0.0629 nM.
